Results as given in the supplement of paper PMC9446081.
In all, about 39,000 compounds went through this assay and about 220 (0.56%) showed activity. This is one part of the list.

Tested on: Escherichia coli K-12 BW25113
Assay: relative growth (OD600 normalised to plate interquartile mean) (fraction); higher = less growth inhibition, active = 0.2 or less
Details: 50 µM; LB; incubation time: overnight (16-24 h)
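Further: static incubation at 37 °C against the wild-type strain, values averaged over two biological replicates.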

SMILES	relative growth
C[C@@H]1CN([C@H](C)CO)C(=O)Cc2cc(NC(=O)CCC(F)(F)F)ccc2O[C@H]1CN(C)S(=O)(=O)c1cccs1	inactive: 0.984
COc1ccc(S(=O)(=O)Nc2ccc3c(c2)C(=O)N([C@@H](C)CO)C[C@H](C)[C@@H](CN(C)Cc2ccc(C(=O)O)cc2)OCCCC[C@H](C)O3)cc1	inactive: 1
C[C@H](CO)N1C[C@H](C)[C@@H](CN(C)C(=O)c2ccc(N3CCN(C)CC3)cc2)OCc2cn(nn2)CCCC1=O	inactive: 0.988
C[C@H](CO)N1C[C@H](C)[C@@H](CN(C)C(=O)Nc2ccc3c(c2)OCO3)Oc2ccc(NC(=O)Nc3cccc4ccccc34)cc2C1=O	inactive: 1
C[C@H]1CN([C@@H](C)CO)C(=O)Cc2cc(NS(C)(=O)=O)ccc2O[C@@H]1CN(C)C(=O)NC1CCCCC1	inactive: 1.01
C[C@@H]1CN([C@@H](C)CO)C(=O)c2cc(NC(=O)Nc3cccc4ccccc34)ccc2O[C@@H](C)CCCCO[C@H]1CN(C)C(=O)Cc1ccccc1	inactive: 1.04
COCC(=O)Nc1ccc2c(c1)C(=O)N(C)C[C@@H](OC)[C@H](C)CN(C(=O)Nc1ccccc1F)[C@H](C)CO2	inactive: 1.02
COc1ccc(NC(=O)N(C)C[C@H]2Oc3ccc(NC(=O)C4CC4)cc3CC(=O)N([C@@H](C)CO)C[C@@H]2C)cc1	inactive: 1.01
C[C@H](CO)N1C[C@H](C)[C@H](CN(C)C(=O)C2CCCCC2)Oc2ncc(C#CC3(O)CCCC3)cc2C1=O	inactive: 0.993
C[C@H]1CN([C@@H](C)CO)C(=O)Cc2cc(NS(=O)(=O)c3cccs3)ccc2O[C@@H]1CN(C)CC1CC1	inactive: 0.977
Cc1noc(C)c1S(=O)(=O)Nc1ccc2c(c1)C(=O)N([C@@H](C)CO)C[C@H](C)[C@H](CN(C)S(C)(=O)=O)OCCCC[C@@H](C)O2	inactive: 0.993
C[C@@H]1CN([C@H](C)CO)S(=O)(=O)c2ccc(-c3cccnc3)cc2O[C@H]1CN(C)C(=O)c1cccc(F)c1	inactive: 1.01
C[C@@H]1CN([C@@H](C)CO)C(=O)c2cc(NC(=O)C3CCCCC3)ccc2O[C@@H](C)CCCCO[C@H]1CN(C)S(=O)(=O)c1ccc(F)cc1	inactive: 1.01
C[C@H]1CCCCO[C@H](CN(C)Cc2ccc(C(F)(F)F)cc2)[C@@H](C)CN([C@@H](C)CO)C(=O)c2cc(NS(C)(=O)=O)ccc2O1	inactive: 0.974
C=C1C(=O)O[C@@H]2/C=C(\CO[C@@H]3O[C@H](CO)[C@@H](O)[C@H](O)[C@H]3O)CC/C=C3\C[C@H](OC3=O)[C@@H]12	inactive: 0.997
COc1ccc(S(=O)(=O)N(C)C[C@@H]2OCCCC[C@@H](C)Oc3ccc(NC(=O)C4CCCCC4)cc3C(=O)N([C@@H](C)CO)C[C@H]2C)cc1	inactive: 1.02
O=C(CN1CCOCC1)N[C@@H]1CC[C@@H](CCNC(=O)Nc2cc(F)ccc2F)O[C@H]1CO	inactive: 0.996
Cc1noc(C)c1S(=O)(=O)N(C)C[C@@H]1Oc2ccc(NS(=O)(=O)c3cn(C)cn3)cc2C(=O)N([C@@H](C)CO)C[C@@H]1C	inactive: 1.03

SMILES	relative growth
COc1ccccc1CNC(=O)C[C@H]1C[C@H]2c3cc(NC(=O)c4ccc5c(c4)OCO5)ccc3O[C@H]2[C@@H](CO)O1	inactive: 1.03
COc1ccc(CN(C)C[C@H]2OCCCC[C@@H](C)Oc3ccc(NS(=O)(=O)c4cccs4)cc3C(=O)N([C@H](C)CO)C[C@@H]2C)cc1	inactive: 0.995
C[C@H]1CN([C@@H](C)CO)C(=O)c2cccc(NC(=O)C3CCOCC3)c2O[C@H]1CN(C)S(=O)(=O)c1cccs1	inactive: 0.983
O=C(N[C@H]1CCCCNC1=O)c1ccco1	inactive: 0.98
C[C@@H]1CCCCO[C@H](CN(C)Cc2ccc3c(c2)OCO3)[C@H](C)CN([C@@H](C)CO)C(=O)c2cc(NC(=O)Nc3ccc4c(c3)OCO4)ccc2O1	inactive: 1.02
CC(=O)N(O)CCCCNC(=O)CCC(=O)N(O)CCCCCNC(=O)CCC(=O)N(O)CCCCCN	inactive: 0.857
C[C@H]1CN([C@@H](C)CO)C(=O)c2cc(NC(=O)CCN3CCOCC3)ccc2O[C@H]1CN(C)Cc1ccc2c(c1)OCO2	inactive: 0.973
COc1ccccc1S(=O)(=O)N(C)C[C@@H]1Oc2cc(C#CCC(C)C)ccc2S(=O)(=O)N([C@H](C)CO)C[C@@H]1C	inactive: 1.03
CC(C)NC(=O)Nc1cccc2c1O[C@H](CN(C)S(=O)(=O)c1cn(C)cn1)[C@H](C)CN([C@@H](C)CO)C2=O	inactive: 0.967
C[C@@H]1CN([C@H](C)CO)C(=O)c2cc(NS(=O)(=O)c3ccc(F)cc3)ccc2O[C@@H](C)CCCCO[C@@H]1CN(C)C(=O)Cc1ccccc1	inactive: 0.939
N=c1ccn2c(n1)O[C@H]1[C@H](O)[C@@H](CO)O[C@H]12	inactive: 1.03
O=C(C[C@@H]1C=C[C@H](NC(=O)Cc2ccccn2)[C@@H](CO)O1)NCCCN1CCOCC1	inactive: 1.02
O=C(C[C@@H]1CC[C@@H]2[C@H](COC[C@H](O)CN2S(=O)(=O)c2ccccc2)O1)NCCN1CCCCC1	inactive: 1.03
CC(C)NC(=O)Nc1cccc2c1O[C@H](CN(C)Cc1ccc(-c3ccccc3)cc1)[C@@H](C)CN([C@H](C)CO)C2=O	inactive: 1.03
Cc1noc(C)c1NC(=O)Nc1ccc2c(c1)C(=O)N([C@@H](C)CO)C[C@@H](C)[C@@H](CN(C)S(=O)(=O)c1ccc(Cl)cc1)OCCCC[C@H](C)O2	inactive: 0.971
O=C1OCCC/C=C\[C@H]2O[C@@]34C=CCN(c5ccc6ccccc6c5)C(=O)[C@H]3N(CCCO)C(=O)[C@@H]4[C@@H]12	inactive: 0.979
COc1ccc(S(=O)(=O)Nc2ccc3c(c2)C(=O)N([C@@H](C)CO)C[C@H](C)[C@H](CN(C)S(=O)(=O)c2ccc(Cl)cc2)OCCCC[C@H](C)O3)cc1	inactive: 1.01
O=C(C[C@@H]1C=C[C@@H](NC(=O)Nc2cc(F)ccc2F)[C@@H](CO)O1)NCCCN1CCOCC1	inactive: 0.974
